In the supplement of paper PMC3334620:
Whole data set: some 33,000 sequences, median “E-score (-0.5 to 0.5)” near -0.054, cut for the highest 2% near 0.39. Some of the results follow.

These sequences were tested against Ylr278c (UniProt Q05854) (assay: PBM E-score (8-mer binding enrichment) (E-score (-0.5 to 0.5)); higher = stronger / more preferred TF binding; most listed sequences are background and not binding sites). Details: protein concentration: 200 nM; construct: GST-DNA-binding domain.
In short: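 Full-length yeast transcription factors or their DNA-binding domains, GST-tagged and expressed with PURExpress, were applied at about 100-200 nM to universal all-10-mer Agilent arrays. These arrays had been made double-stranded by primer extension on fresh or once-stripped slides. Detection used fluorescent anti-GST, normalisation used masliner, and E-scores for ungapped eight-base words pooled with reverse complements came from the Universal PBM Analysis Suite.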

| Sequence | PBM E-score |
| --- | --- |
| CCGATGCA | 0.321 |
| CCGGATCA | 0.385 |
| GTTGGCGA | 0.0382 |
| CCTGTGCC | -0.0999 |
| GATAGCGA | -0.0967 |
| ATACCGCA | 0.171 |
| CTGGTCCA | -0.0757 |
| CCAGCTAG | -0.391 |
| AGAAGAAG | -0.0903 |
| CTCAGGCA | -0.005 |
| ATACAGAG | -0.265 |
| GCCGCAAC | 0.204 |
| AGTACGTG | -0.202 |
| ATCAACGC | -0.14 |
| GGTGCCCA | -0.189 |
| GCTGACAA | -0.0996 |
| AAAATCCC | 0.263 |
| CTTGCAAC | -0.159 |
| AAGCCTGA | -0.263 |
| GTACTAGA | -0.178 |
| CGCGGTCA | 0.179 |
| ACTTACAG | -0.248 |
| ACATCGGG | 0.13 |
| GAACCTAC | -0.0584 |
| ACTTAGTA | 0.00926 |

| Sequence | PBM E-score |
| --- | --- |
| GGTTGGCA | -0.173 |
| CTAAGTCA | -0.157 |
| CATTCGTC | 0.00738 |
| AATTCGCC | 0.123 |
| ATAGCTGC | -0.116 |
| GCGGGCAA | 0.187 |
| CTACGTGA | -0.241 |
| CCCAACTA | -0.0927 |
| CCCGAGAG | 0.182 |
| ACTACGTA | 0.0434 |
| CCCATCTA | -0.0604 |
| ACACCATA | -0.129 |
| ATGATCCA | -0.0231 |
| AGCATATC | -0.0308 |
| GCGTTTGA | -0.124 |
| AATATTGT | 0.0529 |
| AATCTAAC | -0.055 |
| TAACCATA | -0.211 |
| AAAGAGGG | -0.238 |
| CTGCCATA | -0.0982 |
| AGCGCTAC | -0.121 |
| GTAGATGA | 0.031 |
| TGGATCCA | -0.155 |
| GGCGAAAC | 0.108 |
| ATTTGCGC | 0.167 |

| Sequence | PBM E-score |
| --- | --- |
| GATCCCAC | 0.0958 |
| AATCTTAG | -0.139 |
| AGTGTTAT | -0.0541 |
| GAGCAAAA | -0.132 |
| CACTACGC | -0.166 |
| ATCCAGGA | -0.132 |
| AACCATAC | -0.174 |
| TGACTACA | -0.239 |
| CAACTGCG | 0.0666 |
| CTCCCTCC | 0.142 |
| GAACAGCC | -0.0974 |
| ACATTCGG | 0.283 |
| CACTTGGA | -0.0485 |
| AGAGTCAC | -0.333 |
| ACTAGTAA | -0.116 |
| CAGGTAGG | -0.133 |
| AGATACTA | 0.0941 |
| AGGCCCTA | -0.111 |
| GACTGAAA | 0.00029 |
| AGCCATCA | -0.162 |
| CGAAAACC | 0.149 |
| AATATTAT | 0.14 |
| CGTTAACC | -0.0032 |
| TCTAGGAA | -0.216 |
| GAGAAAGA | 0.0968 |

| Sequence | PBM E-score |
| --- | --- |
| CCGATTTA | 0.396 |
| ACCTAAGA | -0.207 |
| ACAAATCT | -0.172 |
| ATACCATG | -0.12 |
| AGGAATAA | 0.0369 |
| ACCCTGCC | -0.0324 |
| GGCTCGCA | -0.0539 |
| ATTGGAAG | -0.0562 |
| GCACAATA | -0.173 |
| GATGCGAA | 0.0139 |
| ATGTATCC | -0.00064 |
| CGACTTAA | -0.156 |
| CGAACTGC | 0.0356 |
| CTCCTGCC | 0.00663 |
| GGCAATAA | 0.135 |
| AGAAACTG | -0.104 |
| TGTCGAAA | -0.169 |
| AGTAAGGG | 0.135 |
| ATCTAGTG | -0.173 |
| CAGATTGA | -0.058 |
| CAATAGTG | 0.029 |
| GGTGGAGA | -0.155 |
| CTGGTGAC | -0.201 |
| GGAAAGCA | 0.173 |
| AGGGGTGG | 0.00466 |

| Sequence | PBM E-score |
| --- | --- |
| GATCAAGC | -0.132 |
| CAAGACTG | -0.242 |
| CATCCGTA | 0.183 |
| GAGCACCA | -0.183 |
| CACACGTG | -0.24 |
| CCGCCAAG | -0.00632 |
| CGCCTGGC | -0.0638 |
| ACAAGACG | -0.0361 |
| AGTTTAAT | -0.0337 |
| TCTTGGCA | -0.115 |
| AATCTAAG | -0.206 |
| AAACCGCT | -0.0166 |
| ACATGGTC | -0.24 |
| CCTGAGCC | -0.229 |
| CCAACATC | 0.0521 |
| AAACGAGC | -0.166 |
| ACACGTCT | -0.176 |
| ATTCACCA | -0.0283 |
| CTTGTACA | -0.0117 |
| CTACACCA | -0.133 |
| ACGTGTGG | -0.215 |
| CTCGGCAC | 0.233 |
| CGTTCTGC | 0.0487 |
| ACCAAGCC | -0.16 |
| AGTTGTGG | -0.0534 |

| Sequence | PBM E-score |
| --- | --- |
| AAGGCTAC | -0.175 |
| CCCAGAAA | -0.0144 |
| GGGCAAAC | 0.178 |
| TAGCCGGA | 0.42 |
| AACGACAG | -0.252 |
| GACGCCAA | -0.216 |
| GAAGAGTA | 0.0345 |
| CCAAGCTA | -0.224 |
| AAATAGAG | -0.0285 |
| CGGGAACA | 0.192 |
| GCGACAAA | -0.0407 |
| ACACTGAA | 0.00318 |
| ATCTCAAA | -0.0373 |
| GATATCAA | -0.0326 |
| GAACTGCA | 0.0105 |
| TGTGGCAA | -0.0293 |
| GACTCCAA | -0.221 |
| CAAGACTA | -0.215 |
| CATGGGAG | -0.179 |
| CGCGGTAG | 0.17 |
| GCTACAGA | -0.21 |
| CCTGACCA | -0.259 |
| CAGACTTA | -0.264 |
| TCTCCGAA | 0.455 |
| AACATACC | -0.0644 |

| Sequence | PBM E-score |
| --- | --- |
| AGATTGAA | -0.00762 |
| TCATACCA | -0.0176 |
| ACAGGATA | -0.221 |
| GCGGTAAA | 0.198 |
| CCCGCCCG | 0.344 |
| ACCTCCCC | 0.0862 |
| ATACCTCC | 0.0526 |
| ACGCTCCA | -0.0164 |
| GCAATCGC | -0.00646 |
| ATTGTCTA | 0.0103 |
| ATCTGATA | -0.0731 |
| CGTAGGCA | -0.246 |
| AATGGCTC | -0.126 |
| CCACAATA | -0.0853 |
| CTAATTGA | -0.0789 |
| GCTCGTTA | -0.188 |
| ATAACAAC | -0.0589 |
| ATATTAAC | 0.0939 |
| GCATACCC | -0.0377 |
| CTCTGCCA | -0.247 |
| CTCGGACA | 0.435 |
| CCTAACTC | 0.0405 |
